Sequences and labels used below:
B1: chr7:141450121:141450122:+_ENSG00000106028_ENST00000265304|hu_mus|hu_hu_hu_mus_True|1_28 (ssRNA)
RNA: GGGAGUUCUACAGUCCGACGAUCUCAUCCGUUCUAUGCCUUUUCUUUUGUCUGGUCACUCAGAAAUAUAAUGUUAUCAGCUAUGAUUGUUGUUGCUUGCCGCCUCACAUUAUUUUUAUCCAUGUACUCGCCAUAGUCUAUUUUCAACAGAGGAUUGAGCAUCA
B2: chr3:135125919:135125920:+_ENSMUSG00000078578_ENSMUST00000106291|mus_mus|FALSE|FALSE (ssRNA)
RNA: GGGAGUUCUACAGUCCGACGAUCCUCUGGCACUAGGGGGUCGUCUGGGUUUGGAUCACAUAGCAGUGAACAAAUGGAUAAAAGAACUUUAGAAAUAGUUAAAGCAGGAGACCACUGUGAUCUUAGAAUAUCAAGACAAAUGCUCAACAGAGGAUUGAGCAUCA
B3: chr4:107939044:107939045:-_ENSMUSG00000034636_ENSMUST00000043616|mus_mus|motif|central (ssRNA)
RNA: GGGAGUUCUACAGUCCGACGAUCACUUAUGAUGUCUGUGAUAGUGAUGUCAGCAUUCACACCCGUGGCAUCAAGUUCGGCGGGCUUGUGGUGGCAAAAGGCUUUCCGGAAAGCAACAGCGGAAAUCUUUGCUUUGCGAAUGCACAACAGAGGAUUGAGCAUCA
B4: chr5:128448638:128448639:+_ENSG00000066583_ENST00000173527|hu_mus|hu_hu_hu_mus_False|8_58 (ssRNA)
RNA: GGGAGUUCUACAGUCCGACGAUCGGCACUCGCCUUAAUUAGGUUCUGAAUUUCCUUGAACUUCGGGUGGUCUUUGUCAGCUACCAGCUGUAGGAGGACAGCCUCACUAGUGGUCACGAUGAUCCCAGUUCGAGCGAGACGCUCCAACAGAGGAUUGAGCAUCA
B5: 89288159_89288279_1509_3pUTR_ENSMUSG00000022619_ENSMUST00000023291|mouse|control|control (ssRNA)
RNA: GGGAGUUCUACAGUCCGACGAUCGUGGCCCGCAAAGAGUGUCCAUGUCCACCAACUCCACGUGGGGCCCUGCCUCAGGGUCUUGGCAGUCCUGGGGUACCGAGUUGGCCUGUGACGCAGCCUCUUCUGGCAGGCGUGGGGCAGCAACAGAGGAUUGAGCAUCA
B6: 143143844_143143964_2533_3pUTR_ENSMUSG00000029578_ENSMUST00000036872|mouse|control|control (ssRNA)
RNA: GGGAGUUCUACAGUCCGACGAUCACCUCACUUUCCUGCCCUUGUAAGACCAAAAGAAAAGGCACAUCACCCCGGGAGGGAAUCUCCUGCCGCCUCCCUGGGAGGGGGAGGGGCCCCUCUACUCUCUGCUAUGUCUGGGGAGGGCAACAGAGGAUUGAGCAUCA
B7: 156714060_156723743_301_CDS_ENSG00000055163_ENST00000521420|human|control|control (ssRNA)
RNA: GGGAGUUCUACAGUCCGACGAUCCUCCAGCACCUCUACUGUCUUCUCAUAGAUCUCUACUCGGUUGGGCUGCUCGUUGCAUUUCACCAUGCUGGAGUGGACUGUAGCCUGCUCAAUGUACCUUGCAAUGCCCGUGACAAAUGCCAACAGAGGAUUGAGCAUCA
B8: chr17:88379672:88379673:+_ENSMUSG00000005370_ENSMUST00000005503|mus_hu|FALSE|FALSE (ssRNA)
RNA: GGGAGUUCUACAGUCCGACGAUCUCCCUUCUGGGCUUCCUUUGAUUUUGAACCUGUAUAUGGCUUUAAAAGCCUUUUGCUAACCCAGCCCCUUGUUGGGCUGUCAUCAAAAAACUGUACAUGAACACGGACUGAUUUCCCUUUCAACAGAGGAUUGAGCAUCA
B9: 64804437_64804557_6387_3pUTR_ENSG00000154229_ENST00000413366|human|control|control (ssRNA)
RNA: GGGAGUUCUACAGUCCGACGAUCAACGUGAGAAAAUGACUGUCAGAUGGUAUCACCUUUCCGAGGCUUUUAAAAAUACAAGAUUGUCACUUUUUCUCUUUUCAGUACUGAGAAAACAAAUUCCAGCAAAAAAAAAAAAAACAGCAACAGAGGAUUGAGCAUCA
B10: chr17:45705486:45705487:-_ENSMUSG00000023944_ENSMUST00000024739|mus_hu|FALSE|FALSE (ssRNA)
RNA: GGGAGUUCUACAGUCCGACGAUCAUUGGCUGUCCAGCCGUAGGUGCUGGUCACAAUGCAGCAAGGUGAAGACACAAGUCUAUUGGAGAUUGUCACCUUCUCAACCUUCUUAUCUAAGAUUUCUUUCAUGAGCUUGCAGAGGUUCAACAGAGGAUUGAGCAUCA
B11: chr1:39494447:39494448:+_ENSG00000168653_ENST00000372967|hu_mus|hu_hu_hu_mus_False|1_48 (ssRNA)
RNA: GGGAGUUCUACAGUCCGACGAUCGCACCGAGCGGCGUUCUUAUAGGGCUGUUCUGCGCUUAGGAACAUAAAGUGCCGGUCCAGGCUAAGGCCGAACUUUUUCUGUAUGUCAAGGAAAGGCAUGGCUCUGCAGUGCCCCCUUGACAACAGAGGAUUGAGCAUCA
B12: chr11:18422405:18422406:+_ENSG00000134333_ENST00000379412|hu_hu|motif|central (ssRNA)
RNA: GGGAGUUCUACAGUCCGACGAUCCAGCUUGGAGUUUGCAGUUACAUUAUAGUCUUUGCCAGAGACAAUCUUUGGUGUUCGGAGGAAAAGGCUGCCAUGUUGGAGAUCCAUCAUCUCUCCCUUCAAUUUGUCUUCGAUGACAUCCAACAGAGGAUUGAGCAUCA
B13: chr10:106025898:106025899:+_ENSG00000148834_ENST00000369713|hu_mus|FALSE|FALSE (ssRNA)
RNA: GGGAGUUCUACAGUCCGACGAUCUAGACACUCCUUGAGCUCCAAUGCUUCCAGUCGCUGAAACCAAGGCCAAGUAAGAUAAUCAACCAUAGAAGGAGAAUCCCCACCAAGGAAGCUCUUGUAAUUAUCCAUGCCCUCCUCUAGCAACAGAGGAUUGAGCAUCA
B14: chr7:77256914:77256915:+_ENSG00000127947_ENST00000248594|hu_hu|motif|central (ssRNA)
RNA: GGGAGUUCUACAGUCCGACGAUCUAUAUUAUGUCUAGCAAUGGACAUUGGCAAUACUUUCCUAGUAGAAAUGCUUUCAGUACGGGUGGCAGCAGAAACUGUGGCACUUGCUGUUGAAAUAUUAGUUUUAUUCUGGGUCACAGCCAACAGAGGAUUGAGCAUCA
B15: 75765044_75765164_3056_3pUTR_ENSMUSG00000042410_ENSMUST00000047232|mouse|control|control (ssRNA)
RNA: GGGAGUUCUACAGUCCGACGAUCUUUCUUUUAAUUUAGGUUAAACCAGUAAUUCAAAAAAGCAUUAAACCAUUAUUAAGAAUUAAACUGAAAAUGUUUUUCCAUGAAAAUUUAUCAGGCUAUUUGUGGCUAAUUAAAAAAAAACAACAGAGGAUUGAGCAUCA
B16: chr2:183846084:183846085:-_ENSG00000061676_ENST00000360982|hu_hu|motif|central (ssRNA)
RNA: GGGAGUUCUACAGUCCGACGAUCAAGGUACUGCACGUAAUACCUCUGCAUUACAGGUCCGUAUUUCCUCACAUGUGCUCGGAGUUCUUCCAUGUAAAAUAUUAAUUCAGCAAUGUGCUUAUCUAUAAAGUCGUCUGCACUCUUCAACAGAGGAUUGAGCAUCA
B17: chr1:137271502:137271503:-_ENSMUSG00000041889_ENSMUST00000041240|mus_mus|FALSE|FALSE (ssRNA)
RNA: GGGAGUUCUACAGUCCGACGAUCCAGUCCUCACUCGCCAGCGCCAGAGGAGCCCCAAGCACCAGCAGGACGACGGCUGCGAGCGGCGCGGUCCCGCGGGGCCCCGCGGGCGGCAUGGCGAGAGGGGGCUGGGCGCGGCCAGGACAACAGAGGAUUGAGCAUCA
B18: chr3:32582686:32582687:-_ENSG00000144635_ENST00000273130|hu_hu|motif|central (ssRNA)
RNA: GGGAGUUCUACAGUCCGACGAUCUCUCUGGGGAGAAGCCGGGAAGUCUUCUCCUGGCUCUACAUAUUCUUGGAAGUCUCGGAUCAACUUUUGUUCCAUUUGUUUCAUUUCUUCAGGAGGGAUUUUCAGUUUGUCAACAUGUUCCAACAGAGGAUUGAGCAUCA
B19: chr3:148802587:148802588:-_ENSG00000071794_ENST00000310053|hu_mus|hu_hu_hu_mus_False|38_38 (ssRNA)
RNA: GGGAGUUCUACAGUCCGACGAUCUCCAACAACUUGUCCUCUCAUAGUUCCAAAUAAAACCAAAUCUUGCUCUUCAUCACUCGUUAGGAAGUCAUCUGGAGGGAUAAUGUCUUGGAAUUCAAAAUGUGGCAAGAAAGUUGAGUACAACAGAGGAUUGAGCAUCA
B20: chr2:42509997:42509998:+_ENSG00000143924_ENST00000318522|hu_mus|hu_hu_hu_mus_True|48_88 (ssRNA)
RNA: GGGAGUUCUACAGUCCGACGAUCUCGCUGAGUCCUCUCCUCAUAAUUAAAUAGUACUACCACUGAGGCGAUAAAAUAAACUAUCUCCCCGGUCGGAAGCAGGUAUACAUUCGCUCUACAGUCCUUUCCUCGAUAACCGUAUACCAACAGAGGAUUGAGCAUCA
B21: chr19:8913615:8913616:-_ENSMUSG00000071658_ENSMUST00000096259|mus_hu|mus_mus_mus_hu_False|68_78 (ssRNA)
RNA: GGGAGUUCUACAGUCCGACGAUCAGGGUACCAAAACCUUCUGCCUGAAAUGGGUGCCCCACCCUGCCAGGACUUGGAGCUGAAAGUAUCUGAUGCAGAAGCAGUGACUAUACGAAAGGAGGCCCCUGGGGAGGGCCAGGCCAGCAACAGAGGAUUGAGCAUCA
B22: 57861572_57865899_835_CDS_ENSG00000047315_ENST00000314595|human|control|control (ssRNA)
RNA: GGGAGUUCUACAGUCCGACGAUCAAUAUCUCUGUCGGACACAAAACCUAAUGCUCUGAACACAAUAAUGAUGGGAACUUCUUGCUUGAUAUAUGGUAGAGUUGCCACAAUGCGCUGACCAAUAGCACUCUUCUUGGCACCCUGCAACAGAGGAUUGAGCAUCA

These results are taken from paper PMC12136788.

The list shows a part of the results.

The target in this test is T1, UNK ZnF1-3 (human, UniProt Q9C0B0 31-174).
T1 sequence: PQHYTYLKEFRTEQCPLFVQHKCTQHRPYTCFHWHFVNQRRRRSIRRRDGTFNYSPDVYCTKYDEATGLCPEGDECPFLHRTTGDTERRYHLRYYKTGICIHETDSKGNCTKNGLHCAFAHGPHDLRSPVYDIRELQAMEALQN
The test can be described thus: nsRBNS (natural sequence RNA bind-n-seq); RBNS binding buffer (assumed for nsRBNS): 25 mM Tris pH 7.5, 150 mM KCl, 3 mM MgCl2, 0.01% Triton X-100, 500 ug/ml BSA, 20 U/ml SUPERase-In, 4 C; UNK is unkempt and MSI1 is Musashi-1; names of the RNAs are library labels; protein concentration not given here; high values mean tight binding.
In the case of B1, the binding signal is 0.428 enrichment R.
The result for B2 reads 1.81 enrichment R; that for B3, 1.08 enrichment R.
Turning to B4, the binding signal was found to be 0.758 enrichment R.
In the case of B5 it was 0.56 enrichment R; in that of B6, 1.86 enrichment R.
In the case of B7 it was 0.831 enrichment R; in that of B8, 0.522 enrichment R; in that of B9, 2.14 enrichment R.
In the case of B10 it was 1.02 enrichment R; in that of B11, 0.68 enrichment R; in that of B12, 0.638 enrichment R.
In turn, B13 gave a binding signal of 1.28 enrichment R.
In the case of B14 it was 1.7 enrichment R; in that of B15, 0.747 enrichment R.
The result for B16 reads 0.887 enrichment R.
Regarding B17, the binding signal was determined as 0.944 enrichment R.
In the case of B18 it was 0.784 enrichment R.
The result for B19 reads 1.31 enrichment R.
In the case of B20 it was 1.59 enrichment R; in that of B21, 1.2 enrichment R.
Molecule B22 displayed a binding signal of 0.948 enrichment R.
